According to PubChem BioAssay AID1794842 (National Center for Advancing Translational Sciences (NCATS), 2023):
Fewer than 10 of roughly 2,800 compounds were called active. Calls come from the whole dose curve; as a rule, active = well fitted curve in the direction sought with a large enough effect; inconclusive = small, poorly fitted or top-dose-only effect, or another doubt; inactive = no such curve, though single readings can be large or run the other way. The list shows a part of the results.

target: Metallo-beta-lactamase type 2 (Klebsiella pneumoniae) (UniProt C7C422); test: qHTS to identify inhibitors of the New Delhi Metallo-beta-lactamase (NDM): Meropenem screen against the machine-based learning selections.; note: % of control where 0% means no effect; conditions: Purified NDM-1, meropenem hydrolysis, absorbance 300 nm; at 38.4 µM (top of the series) unless noted
UniProt C7C422, sequence (C7C422 whole entry, looked up): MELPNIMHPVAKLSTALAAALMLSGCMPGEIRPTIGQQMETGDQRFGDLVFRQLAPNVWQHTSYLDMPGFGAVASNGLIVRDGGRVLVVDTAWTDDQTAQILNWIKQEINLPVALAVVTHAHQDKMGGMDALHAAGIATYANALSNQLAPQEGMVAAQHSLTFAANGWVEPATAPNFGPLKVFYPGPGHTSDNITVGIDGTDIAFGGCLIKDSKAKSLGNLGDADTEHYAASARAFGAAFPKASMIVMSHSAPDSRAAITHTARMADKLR
Summary of the method: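 Hydrolysis by 2 nM NDM-1 was followed by absorbance after >30 min compound preincubation in HEPES pH 7.0 buffer with 1 uM Zn2SO4. For nitrocefin (16.7 uM, 15 min, 485 nm) and meropenem (50 uM, 30 min, 300 nm), each substrate ran on separate plates.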

Activity change, negative = inhibition, inactive:
N#Cc1cccc(CN2CCC(C3=NC(O)c4cc(F)ccc4N3)CC2)c1 (configuration not stated) 2.09%
C=CCC(=O)N1CCCC1C(=O)Nc1ccc(-c2cccc(OC)c2)cc1 (configuration not stated) 8.12%
COc1ccc(OC)c(S(=O)(=O)N2C[C@@H](F)C[C@H]2C(=O)N2CCc3ccccc3C2)c1 4.62%
O=C(N[C@H]1CCN2C(=O)c3cc(-c4ccsc4)ccc3NC(=O)[C@H]12)c1cccc(F)c1 1.49%
O=C(Cc1c[nH]c2ncc(-c3ccccc3)cc12)NCc1ccncc1 2.64% [at 57.5 µM]
CSc1cccc(NC(=O)N(C)CC2CCOCC2)c1 -0.523%
CCOc1cc(=O)n2c(c1C(=O)N1CCN(c3ccc(F)cc3)CC1)CCCC2 2.67%
O=C(Nc1ccccc1)c1cnc2c(c1)N(C(=O)Cc1ccc(O)cc1)CCC2 11.6% [at 57.5 µM]
COc1ccc(CN2CCNc3cc(-c4ccnc(C)c4)ncc3C2)cc1O 4.08% [at 57.5 µM]
CCNC(=O)[C@@H]1C[C@H](n2cc(CN(C)C(=O)NC3CCCCC3)nn2)CN1 62%
CN1CCC(N2CCC[C@H]2C(=O)NCc2cc3n(n2)CCCNC3)CC1 44.8%
CC[C@H]1CN(C(=O)Nc2cccc(C(F)(F)F)c2)CC[C@H]1CC(=O)Nc1ccccc1 0.122% [at 57.5 µM]
COc1ccc(-c2cnc3[nH]cc(CC(=O)Nc4cccnc4)c3c2)cc1 3.64% [at 57.5 µM]
Oc1ccccc1CN1CCC(O)(c2csc(CN3CCc4ccccc4C3)n2)CC1 0.65%
COCCNc1ncc(-c2cccc(N[S+](C)(=O)[O-])c2)c2c1OCC2 10.3% [at 57.5 µM]
COC[C@H]1CCCN1Cc1nc(C2(O)CCN(C3CCC3)CC2)cs1 0.513% [at 57.5 µM]
COc1ccc(-c2[nH]ncc2CNC(=O)C2NCCc3[nH]cnc32)cc1 (configuration not stated) 47%
O=C(NCc1ccc(F)cc1)c1ccnc(-c2nnc3ccc(Nc4ccccc4)nn23)c1 19.4%
O=C(NC[C@H]1OC[C@@H](NCc2ccccc2)[C@@H]1O)c1ccccc1 -1.32% [at 57.5 µM]
CN(C)c1nccnc1OC1CCN(C(=O)CCCc2ccccc2)C1 (configuration not stated) -0.852%
O=C(N[C@H]1CCN2C(=O)c3cc(-c4cccc(C(F)(F)F)c4)ccc3NC(=O)[C@@H]2C1)c1ccncc1 1.42%
FC(F)(F)c1ccc(N2CCC(N[C@@H]3C[C@@H]4OCC[C@@H]43)CC2)nc1 10.6%
NC(=O)Cc1c[nH]c2ncc(-c3ccc(F)cc3)cc12 12.5% [at 76.7 µM]
COC[C@H]1C[C@@H](NS(C)(=O)=O)[C@H](O)[C@@H]1O 0.519% [at 76.7 µM]
COCCNc1cc(-c2noc([C@@H]3CCCN3Cc3ccccn3)n2)ccn1 7.4% [at 57.5 µM]
CC1=C[C@@H](CNC2CCOCC2)[C@H](C(C)C)C[C@H]1Cc1nc2ccc(Cl)cc2[nH]1 8.32% [at 57.5 µM]
COCC1(CNCc2ccc(F)cc2)C[C@@H](O)[C@@H](O)C1 (some centres not stated) 6.53% [at 76.7 µM]
COc1ccc(C(=O)Nc2ccc([C@H]3OCC(=O)N(Cc4cccnc4)[C@@H]3CO)cc2)cc1 5.15%
C=CCc1cc(C2CC(=O)Nc3[nH]ncc32)cc(OCC)c1OC (configuration not stated) 1.43%
COCc1cn([C@H]2CO[C@H]3[C@@H]2OC[C@H]3OC(=O)Nc2cccc(C(F)(F)F)c2)nn1 1.63% [at 57.5 µM]
O=C(O)C[C@@H]1CCN(C(=O)c2cccs2)C[C@@H]1CCN1CCN(c2cccc(C(F)(F)F)c2)CC1 28.9%
CCn1ccc(C(=O)N2CCCC(c3nn(C)c(=O)n3-c3ccccc3)C2)n1 (configuration not stated) 0.0344%
COc1ccc(CC(=O)Nc2ccc([C@H]3OCC(=O)N(Cc4scnc4C)[C@@H]3CO)cc2)cc1 -0.818%
O=C(c1ccc(CNc2nccc(-c3cccnc3)n2)cc1)N1CCCCC1 -3.9%
CCNC(=O)O[C@@H]1CO[C@H]2[C@@H]1OC[C@@H]2NC(=O)c1ccccn1 0.441% [at 57.5 µM]
O=C(O)C[C@@H]1CCN(S(=O)(=O)c2ccccc2)C[C@@H]1CCN(CCN1CCOCC1)c1ccccc1 15.4%
CCc1cc(=O)n(CC(=O)Nc2cc(OC)cc(OC)c2)c(N2CCOCC2)n1 -3.6%
COc1cccc(N2CC(C(=O)NCC(F)(F)F)NC2=O)c1 (configuration not stated) 0.0508% [at 57.5 µM]
CC(=O)Nc1ccc(CN2CCN3C(=O)N(Cc4ccc(C)cc4)C[C@H]3C2)cc1 1.32% [at 57.5 µM]
OCCc1ccc(Nc2cnc3ccc(-c4ccc(F)cc4)nn23)cc1 43.8% [at 57.5 µM]
Cc1cc(Cn2cc3c4c(cccc42)[C@H](CC(C)C)N[C@H](C(=O)O)C3)no1 71.3% [at 57.5 µM]
OC[C@@H]1O[C@H](CN(Cc2cccc(Cl)c2)Cc2cccc(Cl)c2)[C@H](N2CCN(c3ccccn3)CC2)[C@@H]1O 58.1%
CC(=O)NC1(C)CCCN(Cc2cc(-c3cccc(C(F)(F)F)c3)cs2)C1 (configuration not stated) -0.584% [at 57.5 µM]
O=C(NCCc1nccc(-c2ccccc2)n1)c1ccc2cccc(F)c2n1 5.23%
O=C1Nc2ccc(-c3ccccc3F)cc2C(=O)N2CC[C@H](NS(=O)(=O)c3cccs3)[C@@H]12 -0.292%
COC(=O)[C@@H]1Cc2ncn(C)c2CN1C(=O)c1ccc(-c2ccccc2)cc1 15% [at 57.5 µM]
O=C(Cc1c[nH]c2ncc(-c3ccc(Cl)cc3)cc12)NCc1cccnc1 -0.899% [at 57.5 µM]
CCn1cc(CN2CCc3ccccc3C2)ccc1=O 1.57%
C=CCC1(CO)CCCN(CCOc2ccc(C)cc2Cl)C1 (configuration not stated) 1.22%
NC(=O)[C@H](Cc1cccs1)NC(=O)C1=C[C@@H](NC(=O)NC2CCCCC2)[C@@H](O)[C@H](O)C1 -0.293%
O=C(O)c1cccc(-c2n[nH]c3c2CC(=O)N(c2ccccc2)C3)c1 19.1% [at 57.5 µM]
COc1ccc(-c2nc(C(C)C)nc3c2CCN(C(=O)C2CCCC2)CC3)cc1 -2.95%
CNC(=O)Cn1nc(C(=O)N2CCCC(CO)(CC3CC3)C2)cc1C (configuration not stated) 4.54%
C=CCC1(CO)CCCN(CC(=O)NCCc2ccc(Cl)cc2)C1 (configuration not stated) -0.725%
CCOC(=O)C1CCN(Cc2ccccc2OCC(O)CN(C)C2CCCCC2)CC1 (configuration not stated) -1.16%
c1ccc2sc([C@H]3CCN(C4CCC4)C3)nc2c1 -0.754% [at 76.7 µM]
O=C(Cc1c[nH]c2ncc(-c3ccccc3F)cc12)NCc1cccnc1 0.902% [at 57.5 µM]
CNc1ncccc1C(=O)N1CC[C@@H](c2ccc3c(c2)OCO3)[C@H](O)C1 -5.73%
CC(=O)c1ccc(NC(=O)O[C@@H]2CO[C@H]3[C@@H]2OC[C@@H]3NC(=O)c2ccco2)cc1 -0.122% [at 57.5 µM]
CCn1c(CO)nnc1C1CC(NC(=O)Cc2c[nH]c3ccccc23)C1 (configuration not stated) -1.63%
O=C(c1cc(-c2ccc(O)cc2)n[nH]1)N1CCCC(CCc2ccc(F)cc2)C1 (configuration not stated) -1.21%
COc1ccccc1C(O)c1nc(Nc2ccc(Cl)cc2)n[nH]1 (configuration not stated) -1.58% [at 57.5 µM]
CC(=O)Nc1cccc(-c2ccc3ncn(Cc4ccccn4)c(=O)c3n2)c1 13.2% [at 57.5 µM]
COc1cc2c(cc1CN1CCCC(O)(CN(C)C)C1)OCCCO2 (configuration not stated) -0.852%
Cc1ccccc1C(=O)Nc1ccc([C@H]2OCC(=O)N(C)[C@@H]2CO)cc1 -0.834% [at 57.5 µM]
CCOc1ncccc1C(=O)N1CCc2[nH]nc(-c3cccc(F)c3)c2C1 0.0138%
O=C(c1csc(Cc2ccccc2)n1)N1CCC2(CCNCC2)CC1 12.3%
CCCC(C)N1CC2(CCN(C(=O)c3cc(Cl)ccc3C)CC2)OC1=O (configuration not stated) 0.824%
COC(=O)c1ccc2nc(C[C@@H]3C[C@@H](C(C)C)[C@H](CNC4CCOCC4)C=C3C)[nH]c2c1 0.291%
Cn1cncc1-c1nnc([C@H]2CCN(C(=O)c3ccncc3)C2)o1 -1.21% [at 57.5 µM]
O=C(NCC1CCCO1)c1ccnc(-c2nnc3ccc(Nc4ccccc4)nn23)c1 (configuration not stated) 6.26% [at 57.5 µM]
Cc1noc(C)c1S(=O)(=O)N1CCCN(Cc2ccncc2)C(c2ccccc2)CC(=O)NCC1 (configuration not stated) 0.0151%
Oc1ccccc1CN1CCNc2cnc(Nc3ccccc3)cc2C1 8.16% [at 57.5 µM]
O=C(c1[nH]nc2c1COc1ccccc1-2)N1CCCC(Cc2nc(C3CCOCC3)no2)C1 (configuration not stated) 6.21%
Cc1ccccc1-c1[nH]nc2ncc(-c3ccsc3)nc12 3.14% [at 76.7 µM]
CC(C)c1cccc(-c2cc(NCc3ccccn3)nc3[nH]ccc23)n1 2.88%
FC(F)(F)c1ccnc(-c2cc(NCc3ccccn3)nc3[nH]ccc23)c1 1.07%
